# Test results: the supplement of paper PMC11417369
# The list shows a part of the results.
# System: PfSIP2 AP2 domain 1 (GST-tagged)
# Assay: gcPBM binding intensity (ln(normalized median fluorescence intensity)); higher = stronger DNA binding
# Method in brief: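 An Agilent 4 × 180k array of primer-extended double-stranded 36-bp intergenic genomic probes, with negative controls, was incubated for 1 h with GST-tagged P. falciparum DNA-binding domains expressed in E. coli. Alexa488 anti-GST antibody detected bound protein, scanned at 488 nm. Binding intensity is the highest Masliner-normalised natural-log median intensity across replicate spots of either probe orientation.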
row,Sequence,gcPBM binding intensity (ln)
1,ATATATATATAACATTGTACACACAAAGAAATAATA [XGTACX_site6440],8.63
2,ATATGTTTACGTAAATGTACACGTCAGTATATTTCT [XGTACX_site8199],7.01
3,TTTTATAATAAGTATGTAAAAATTATATATATATAT [CACACA_negctrl_site711],9.1
4,AACTTGTATATATACACACACACACTATCTTTTTTT [CACACA_site8601],7.08
5,CTTTTATATGTCTAATGTACGGGCAATATAAATTTG [XGTACX_site8323],7
6,TTTTTCACATTTCAGTGTACATTTTAATCATATATA [XGTACX_site915],7.01
7,CGACAAAAATTTTACAGTACAGTATAAACCTTTTTA [XGTACX_site290],7.06
8,TATTTTTTTAAGTGCAGTACACTTAATTTCCCCCAA [XGTACX_site7328],7.99
9,ATTTTTTTTTTTTTTTTAAGACAAACTCTTAATTTA [CACACA_negctrl_site1389],6.78
10,ATTCCAAAAAAATCAAGTACTAATTTATTATATTAC [XGTACX_site3920],6.9
11,AAAAAAAAAAAAAAAAAAATATATTATATATATATA [XGTACX_negctrl_site467],9.19
12,TCAAAAAATATATTTGCACACTCAAAAAAAAAAAAA [CACACA_site860],7.21
13,TACACACATTACAGATGTACATAAAATTAAAAAAAT [XGTACX_site1804],7.21
14,TATATATATATAAATACATGCATATAATTAATCCAT [TGCATGCA_site400],8.89
15,ACAGGAGTATAACCTCGTACAAAATATATTTACCAT [XGTACX_site5805],7.13
16,CCTAGAAAAGCATATACACACGCGCAAAATAAAATT [CACACA_site4902],7.03
17,TCTTTAAAAAAAAAAAAAAAAAATTCCAAATAAATA [TGCATGCA_negctrl_site538],6.72
18,TAAAAATAAAGAAAATGTACATAAATAAAAATAAAG [XGTACX_site2279],7.32
19,TATATATATACATAATGTACAAGAATTTGTATTGAA [XGTACX_site627],8.26

row,Sequence,gcPBM binding intensity (ln)
1,TGTAGAAATGGGTGCACACACATATAAAATCTATAT [CACACA_site7224],12.2
2,TAAAAAAATAAATATACACACATATATATATATATA [CACACA_site1089],9.63
3,GGATTTATTATATATACACACATACAGATATATATA [CACACA_site5222],7.13
4,TCATTAAAAACTAAAAGTACTCAATATTATGAACAT [XGTACX_site7807],6.96
5,CATATATATTTGTTCACACACACACTAGAAAAAAAA [CACACA_site5380],7.29
6,ATAAAAAATAAAATAAATAAAAAATATTTACCCTTA [TGCATGCA_negctrl_site396],6.55
7,ATATTGTAGATATTGTGTACATATTTTACAACTTTT [XGTACX_site7621],6.94
8,TATGTACACCCATATACACACCTCTATAATATATAT [CACACA_site4563],7.29
9,ACATCATATTAAGAAAGTACAAAAAGAGAACATATA [XGTACX_site1268],6.96
10,AAACAAAATTTATTTCAAAGTTAATAATTTTTATGT [CACACA_negctrl_site232],6.79
11,ATGAATAAATAGGTCACACACAAATATATATAAATA [CACACA_site2416],6.98
12,TTGTTCGATATATGCACACAGTTTTGTTATTTTTCC [CACACA_site4972],7.37
13,CACTACACTGTTAATAGTACATATATTTAAAAAAAA [XGTACX_site7371],7.35
14,AAAAAAAACGGACACACACACATAAATATATATAAA [CACACA_site4260],7.32
15,CACACCCACCAACACACACACAAAAAAAAAAAGAAA [CACACA_site500],7.45
16,ATATTTTATTTTAATACACACAAGTTATATAATCAC [CACACA_site780],6.97
17,AAAAGGTATAGAAACACACACACGTGAATATAGTTT [CACACA_site1905],6.67
18,TACAAATTTATATAAAGTACAAAAAATAATAAAAAT [XGTACX_site7355],7.3
19,AAAAAAAAAAAAAGTGCACACATAAAAATATGATCT [CACACA_site8090],11.2

row,Sequence,gcPBM binding intensity (ln)
1,ACATATGTTTTATGTAGTACTTATTTATTATTATAT [XGTACX_site7528],7.27
2,TCAAATAATAAGTATGCATGCTATATTTATATATAC [TGCATGCA_site920],6.95
3,TACATTTTACTTGTTACACACATATAAAATTAACCA [CACACA_site2922],7.13
4,AAACGTACATAATACACACACATGTATACCTATAAA [CACACA_site7051],7.22
5,AGAAAAAAAAAAAGTACACACATATAATATATATAT [CACACA_site2973],8.34
6,AGTTAATGAATAGGCACACATATATCTGTATAAATA [CACACA_site4448],6.78
7,ATATATTATATAATATGTACATAATAAAATTTAAAT [XGTACX_site1900],7.13
8,ATCTAAATAATATATATATATAATATTAATAATATA [CACACA_negctrl_site1620],7.01
9,TTTTTATTTATATATATATATATATATTATATATAA [CACACA_negctrl_site1654],7.34
10,CTTGTCATTGGGCACACACACATGTATAGGTTATTA [CACACA_site3058],7.19
11,GAGTAAACATATATATGTACATAAAGTTAACATTGC [XGTACX_site2225],7.15
12,TGAACACCCACAAATACACACAAAAAAAATAAATAA [CACACA_site248],7.03
13,ATTTTTTTTCATATAACACACACACTAATATAATGT [CACACA_site9226],7.34
14,AATAAATAAATATATACACACATATCTGTCTACATA [CACACA_site5708],6.89
15,ACAAGATCTAGATACACACACATATCTCTCAATCTA [CACACA_site6453],7.04
16,AATAATTGAAAAACACAAAAATGATTTTCCATAAAT [CACACA_negctrl_site1555],6.51
17,GGGACAGGACGAAAAAATAAATAAATAAATAAAAAA [CACACA_negctrl_site155],7.04
18,GTAAAAAAATAGCACACACACAAAAACACGCACAAA [CACACA_site6723],7.52
